Some of the results follow.

This experiment relates to PfSIP2 AP2 domain 1 (GST-tagged). Put plainly: gcPBM binding intensity (ln(normalized median fluorescence intensity)); higher = stronger DNA binding. In a few lines:
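Binding intensity is the highest Masliner-normalised natural-log median intensity over replicate spots in either probe orientation. To obtain it, GST-tagged P. falciparum DNA-binding domains made in E. coli were incubated for 1 h on an Agilent 4 × 180k array of primer-extended double-stranded 36-bp intergenic genomic probes plus negative controls. Detection used Alexa488 anti-GST antibody with scanning at 488 nm.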
For the sequence “TATCATTTCATATCAAGTACAAACATTTTACATATA [XGTACX_site5307]”, the “gcPBM binding intensity (ln)” value came out at 7.2. The figure for “ATAATAATATATATTGTACACACAAAATGGGAAAAA [CACACA_site8568]” is 7.2.

Regarding TATATATATATAATAGTGCATAAATAAATATATAAA, the “gcPBM binding intensity (ln)” value amounted to 9.34. The result for “AGCTCTTGTCATTTTGCACACACACCCGTATAGGTT [CACACA_site3056]” reads 7.39; that for “AAAAGGGAAATAAAATAAAAAAAGAAACATATATAG [CACACA_negctrl_site455]”, 6.91; that for “GATTCTTCACCGTACTCACACATATATATATATATA [CACACA_site5665]”, 9.03. The result for “TCTTTTTTTTTTAAACGTACATTGCATTATCACGTA [XGTACX_site6873]” reads 7.19. Turning to “ATCCATTATTTTTGTTGTACGGGTAACTTTAAAAAG [XGTACX_site2226]”, the “gcPBM binding intensity (ln)” value was 7.14. The figure for “TAATTATATGTATACACACACATACATTTACATAAC [CACACA_site3238]” is 7.19. The result for “TTAATTTCTATATACGCATGTATGAATAAGATATTG [TGCATGCA_site202]” reads 6.75; that for “ATTTTTTTATAAGAAAATTTCTAACGTTAAAAAAAA [CACACA_negctrl_site1367]”, 6.86; that for “TATAATTATATATATAGTACAGATTTGTTATGTTTA [XGTACX_site7724]”, 6.94. In the case of “CAAACAAACAAATATACACACTTTTGTATAAAGTAA [CACACA_site5860]”, the “gcPBM binding intensity (ln)” value came to 6.79. Take “TATCTCATAGTATACACACACACACCCACCCATATA [CACACA_site1739]”: the “gcPBM binding intensity (ln)” value was determined as 7.18. The result for “CACACGCACGAACACACACACACACGCATATAAATA [CACACA_site6302]” reads 7.66. The figure for “AATATATATATATTCACACATAAAAAAGTAAAAAAA [CACACA_site5040]” is 7.14; for “CATTTACATGCCAACATGCACTGAACAATCTTTATA [GTGCAC_site9797]” it is 7.46; for “ACAAAACTTTTAAGAACACACAAAAATGTACTATCG [CACACA_site7245]” it is 6.78.

With “TTTTATGAATAATTATGTACATAACAAATGATATAT [XGTACX_site8318]”, the “gcPBM binding intensity (ln)” value is 7.3.

With “TACAAAAAAAAATAAAATACATATATATATATATAT [XGTACX_negctrl_site608]”, the “gcPBM binding intensity (ln)” value is 9.76.

Take “CCCTATATAAATAGCTGTACATTTGAACATGTTCAG [XGTACX_site2187]”: the “gcPBM binding intensity (ln)” value was 6.97. For “TTTACAGGAAAAAATACACACATTATTTTACCTTAT [CACACA_site2833]”, the “gcPBM binding intensity (ln)” value is 6.97. Take “CAATAAAAATTAAAATGTACAAATAAATATAAATAT [XGTACX_site7265]”: the “gcPBM binding intensity (ln)” value is 6.82. The figure for “ACATGCCAAAATCTAATACAATAATAATAAAAAAAA [XGTACX_negctrl_site160]” is 6.84; for “ATGAATTATAAATATTCACACAATATTTTTCATATG [CACACA_site4484]” it is 6.78. Regarding “AGTGTGCTCAGCTTAGCACAAATTGGAATACCATGT [CACACA_negctrl_site367]”, the “gcPBM binding intensity (ln)” value turned out to be 7.18. The result for “GAAAATGAAATCCTTGCATGTAAAATTAAAATAGAA [TGCATGCA_site569]” reads 7.05; that for “GTAGTAATAAATTAAAGTACAGAATATATTATACTA [XGTACX_site2809]”, 6.89; that for “TTTTTTTCTTAAAGATGTACTTTTTAAAAATAATCT [XGTACX_site1429]”, 6.68.

Regarding “TGTGTGTGTTCATGGGTGCTTTAATACTATTATAGG [GTGCAC_site9465]”, the “gcPBM binding intensity (ln)” value was 8.34.

In the case of “TATTATAAAAATATTCAGATACATTAACTTACTTTT [XGTACX_negctrl_site4]”, the “gcPBM binding intensity (ln)” value was determined as 6.65.

For “TATTTGCTACATATATGTACTAAAAACTTTTTGCTT [XGTACX_site2362]”, the “gcPBM binding intensity (ln)” value stood at 6.96.

On to “TATCAATTTTTCTGGCTATCCAATTAGGGGAAGCCA [CACACA_negctrl_site1045]”, for which the “gcPBM binding intensity (ln)” value was found to be 6.51. As to “ATTTGCTCACAAGAAGCACACAAAAAAAGAAAAAAA [CACACA_site9338]”, the “gcPBM binding intensity (ln)” value stood at 6.85. The figure for “CAAAAAATTTGACGTAGTACTTAAAAAAAAAAAAAA [XGTACX_site4523]” is 6.93; for “ATATAAATAAACAGGTGTACTATAATGTTCATAGTA [XGTACX_site1553]” it is 6.84; for “GGGAAAATATTTGGGTGTACAAACAAATTAGCTAGC [XGTACX_site6795]” it is 6.93. The result for “TATGATTTCACATAATGTACTTGCTAATTCGTGAAT [XGTACX_site1408]” reads 6.74; that for “AAGAAAATATAAAATGCACACTATAAATTGTATTTA [CACACA_site4257]”, 7.6. The figure for “TAATTATATATATATGCATGTTATAATTTTTATTTT [TGCATGCA_site78]” is 6.73; for “TCTTTAACAAGTTAAACACACATACATAAATACATA [CACACA_site5406]” it is 7.05.

As for “TTATGTCATAAATGCACACATATACATTGTTTTGAT [CACACA_site646]”, the “gcPBM binding intensity (ln)” value came to 7.17.

As to “ACAAAAATATTATATTGTACATTATTAGTTCATATT [XGTACX_site6750]”, the “gcPBM binding intensity (ln)” value stood at 6.9. The result for “TTTTTATATAAATAATGTACATTTGGTTTTATTATA [XGTACX_site2125]” reads 6.85; that for “AACACCCACAGACACACACACAAAAATGATTAAAAA [CACACA_site2433]”, 7.27.

On to “TATTTGTATAAATAAAAATAATATATATCAAATAAC [CACACA_negctrl_site218]”, for which the “gcPBM binding intensity (ln)” value was 6.98. For the sequence “TGAACTCATAGGAAAACACACATATGTGTAATATAT [CACACA_site4267]”, the “gcPBM binding intensity (ln)” value was 6.96. For the sequence “AACAAAAAAACAAACACACACACACGCATATTTATA [CACACA_site7680]”, the “gcPBM binding intensity (ln)” value was 7.01. The figure for “AAATATAGTATTAAAACACACATTTATATAAAAAGG [CACACA_site1482]” is 7.02; for “AAAAACAACACAGATAAATTAACACACACACACATA [XGTACX_negctrl_site588]” it is 7.36; for “TATATACTCAGACATACACACAAATAAAAAAACACC [CACACA_site5820]” it is 8.07.

For the sequence “TTATGTGATTTTAATTGTACATAAATATTTGTTAAC [XGTACX_site3489]”, the “gcPBM binding intensity (ln)” value was 7.05. The result for “CACGCATACAGACACACACACACACGGATATAAATA [CACACA_site6445]” reads 7.28.

With CAATAAATCGAAATCGTGCACGGACACATGCAGTAG, the “gcPBM binding intensity (ln)” value amounted to 9.04. Take “AAATAATATAAATACACACACACATATATAAATACA [CACACA_site4465]”: the “gcPBM binding intensity (ln)” value was 7.11. Turning to “GGTTCATTTATATGGAGTACAAAAAATATGTATATA [XGTACX_site8209]”, the “gcPBM binding intensity (ln)” value came to 7.05.
